Patent US20230084893A1, “METHODS OF TREATING CLEAR CELL RENAL CELL CARCINOMA (ccRCC) USING AXL DECOY RECEPTORS” (Aravive Inc, priority 2020, published 2023)

What was measured:
SN12L1 metastatic ccRCC = SN12L1 metastatic ccRCC model; assay type: in vivo; conditions: 5 mg/kg i.p. twice weekly for 8 weeks
Description: The present inventors evaluated AVB-S6-500 in a SN12L1 metastatic ccRCC model. Following injection of tumor cells, mice were divided into two treatments groups: control and 5 mg/kg intraperitoneal (i.p.) AVB-S6-500. Treatments began 7 days post inoculation and occurred twice weekly for 8 weeks.

metastatic disease = experiment: preclinical models of aggressive human cancers; assay type: in vivo
[1] = 3-month GLP cynomolgus monkey study; assay type: in vivo
From the text: The non-dose dependent clinical pathology changes seen are consistent with an immune response in monkeys to the human AVB-S6-500 protein.

[2] = Phase 1b in platinum-resistant, recurrent ovarian cancer patients; assay type: in vivo, human
Description: The present inventors are currently evaluating AVB-S6-500 in the Phase 1b portion of a P1b/2 randomized, controlled study in combination with either pegylated liposomal doxorubicin (PLD) or paclitaxel in patients with platinum-resistant, recurrent ovarian cancer. […] Higher dose levels of AVB-S6-500 (15 mg/kg and 20 mg/kg) are being enrolled (in combination with paclitaxel and PLD) in Phase 1b expansion cohorts to determine the optimal recommended Phase 2 dose.

GAS6 [3] = target: T1, GAS6 (Homo sapiens, UniProt Q14393); experiment: binding affinity to GAS6
T1 sequence (Q14393 31-678): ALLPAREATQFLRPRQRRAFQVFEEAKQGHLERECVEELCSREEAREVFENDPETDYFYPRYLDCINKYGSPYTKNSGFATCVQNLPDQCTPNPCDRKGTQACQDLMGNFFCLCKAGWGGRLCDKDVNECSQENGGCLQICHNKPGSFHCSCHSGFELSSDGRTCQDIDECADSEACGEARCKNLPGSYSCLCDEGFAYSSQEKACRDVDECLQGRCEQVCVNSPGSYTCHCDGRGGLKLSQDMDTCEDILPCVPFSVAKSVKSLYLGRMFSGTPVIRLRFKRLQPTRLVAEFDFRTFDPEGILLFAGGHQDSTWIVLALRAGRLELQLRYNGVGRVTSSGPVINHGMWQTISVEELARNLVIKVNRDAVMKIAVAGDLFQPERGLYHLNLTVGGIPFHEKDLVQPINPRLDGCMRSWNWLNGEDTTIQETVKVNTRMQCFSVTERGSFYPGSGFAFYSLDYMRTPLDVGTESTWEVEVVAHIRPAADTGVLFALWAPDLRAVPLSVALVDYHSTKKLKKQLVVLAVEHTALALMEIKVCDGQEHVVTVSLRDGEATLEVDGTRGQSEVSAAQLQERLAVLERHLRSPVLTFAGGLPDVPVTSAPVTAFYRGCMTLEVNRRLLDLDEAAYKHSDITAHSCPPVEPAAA

[4] = tested on: ccRCC patient derived xenograft; experiment: patient derived xenograft (PDX) model for ccRCC; assay type: in vivo, mice; conditions: in combination with pazopanib
Description: AVB-S6-500 was also evaluated in a patient derived xenograft (PDX) model for ccRCC, where mice were treated with vehicle, AVB-S6-500 and pazopanib, or a combination of AVB-S6-500 and pazopanib.

GAS6 [5] = target: T1, GAS6; experiment: human efficacious dose estimated with TMDD model; set-up: allowing for a three-fold increase in GAS6 levels in cancer patients relative to normal levels
Description: (§1) The present inventors have previously evaluated PK and toxicokinetics (TK) of AVB-S6-500 and concentrations of GAS6 (PD) in mice (intraperitoneal and i.v. routes) and monkeys (i.v. route) following single and repeat dosing. […] At low doses in the cynomolgus monkey (below 5 mg/kg), clearance is high and half-life is short, but at doses above 5 mg/kg, clearance is lower, half-life is longer, and volume of distribution is larger. Using the TMDD model (Dirks, N., Clinical Pharmacokinetics, 633-659, 2010), the human dose estimated to be efficacious may range from 1 mg/kg (to ensure GAS6 levels remain at least 90% less than baseline) to 20 mg/kg (to ensure 99% abrogation of GAS6 and allowing for a three-fold increase in GAS6 levels in cancer patients relative to normal levels).

[6] = Phase 1 Single Ascending Dose and Repeat Dose study in healthy volunteers; assay type: in vivo
Description: The present inventors previously evaluated AVB-S6-500 in a single-blind, placebo-controlled, first-in-human, Phase 1 Single Ascending Dose (SAD) and Repeat Dose (RD) study in healthy volunteers. Single dose cohorts of 1, 2.5, 5, and 10 mg/kg were evaluated as well as one RD cohort dosed with 5 mg/kg once weekly for four weeks. Subjects were treated with either Placebo (normal saline) or AVB-S6-500 given as i.v. infusions over 60 minutes.

highly metastatic cells = experiment: AXL signaled invasion and migration in vitro; assay type: cell-based
[7] = PK and toxicokinetics following single and repeat dosing; assay type: in vivo, cynomolgus monkey
Description: as §1

[8] = cynomolgus monkey, doses above 5 mg/kg
[9] = cynomolgus monkey, low doses (below 5 mg/kg)

B1: AVB-S6-500: soluble AXL polypeptide fusion protein comprising an Fc domain, a linker, lacks a functional FN domain, amino acid sequence SEQ ID NO: 2 (protein)
chain: EESPFVSNPGNITGARGLTGTLRCQLQVQGEPPEVHWLRDGQILELVDSTQTQVPLGEDEQGDWIVASQLRITSLQLSDTGQYQCLVFLGHQTFVSQPGYVRLEGLPYFLEEPEDRTVAANTPFNLSCQAQGPPEPVDLLWLQDAVPLATAPGHGPQRSLHVPGLNKTSSFSCEAHNAKGVTTSRTATITVLPQQGGGGS[human IgG1 Fc not printed]
modifications: soluble AXL polypeptide-Fc fusion
- toxicity as assessed by bodyweight and clinical observation (SN12L1 metastatic ccRCC): no overt toxicity
- lung tumor burden (SN12L1 metastatic ccRCC; relative to control group): significant reduction
- metastatic disease (metastatic disease): inhibiting metastatic disease
- mortalities ([1]; doses up to 150 mg/kg/dose): no mortalities
- NOAEL ([1]; once weekly 30-minute i.v. infusion, 3 months): at least 150 mg/kg/dose
- dose limiting toxicities ([2]; 10 mg/kg q2w with PLD or paclitaxel, 40 patients): no dose limiting toxicities
- PK ([2]; platinum-resistant ovarian cancer patients): consistent with target-mediated drug disposition (TMDD)
- exposure-response relationship ([2]; preliminary data from Phase 1b): potential exposure-response relationship
- apparent affinity to GAS6 (GAS6 [3]): 93-324 femtomolar
- higher affinity to GAS6 than wild-type (WT) AXL (GAS6 [3]; relative to wild-type AXL): approximately 200 fold
- specific growth rate of tumors [4]: significantly reduced
- weight of tumors [4]: significantly reduced
- human dose estimated to be efficacious (upper end) (GAS6 [5]; to ensure 99% abrogation of GAS6, allowing three-fold increase in GAS6 in cancer patients): 20 mg/kg
- human dose estimated to be efficacious (lower end) (GAS6 [5]; to ensure GAS6 levels remain at least 90% less than baseline): 1 mg/kg
- dose-related adverse events ([6]; healthy volunteers, all doses): no dose-related adverse events
- serious adverse events ([6]; healthy volunteers, all doses): no serious adverse events
- maximum tolerated dose ([6]; healthy volunteers, up to 10 mg/kg): not reached
- tolerability ([6]; single 1, 2.5, 5, 10 mg/kg, 5 mg/kg weekly for four weeks, i.v. infusion over 60 minutes): well tolerated at all doses
- AXL signaled invasion and migration (highly metastatic cells): dramatically reducing AXL signaled invasion and migration
- clearance [7, 8]: lower
- half-life [7, 8]: longer
- volume of distribution [7, 8]: larger
- clearance [7, 9]: high
- half-life [7, 9]: short
- PK profile ([7]; mice (i.p. and i.v.) and monkeys (i.v.), single and repeat dosing): compatible with target-mediated drug disposition (TMDD)
